From PubChem BioAssay AID624417 (National Center for Advancing Translational Sciences (NCATS), 2012)
About 6,400 (1.6%) of roughly 410,000 compounds were called active. The shares of active, inactive and inconclusive entries below differ from those in the screen. Calls follow the shape of the dose curve; as a rule, active = well fitted inhibition curve with a large enough effect; inconclusive = small, poorly fitted or top-dose-only effect; inactive = no such curve, though single readings can be large or run the other way. Potencies of inconclusive entries are left out as doubtful fits.

biological target: Glucagon-like peptide 1 receptor (Homo sapiens) (UniProt P43220); assay: qHTS of GLP-1 Receptor Inverse Agonists (Inhibition Mode); settings: HEK293 GLP-1R CRE-luciferase, luminescence, 24 h, GLP-1R form is constitutively active; series mostly up to 38.3 µM; also: nearly all actives have a fitted effect of over 55% in size
Procedure, shortened: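 Luminescence readout: a drop in cAMP-driven luciferase signal flags inverse agonism at a constitutively active GLP-1R stably expressed in HEK293. Compound exposure lasted 24 hr at 37 deg C, 5% CO2.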
Potency is read from the fitted curve at half-maximal effect; tags tell the direction and shape of the fitted curve.

Chain of UniProt P43220 (P43220 whole entry, looked up): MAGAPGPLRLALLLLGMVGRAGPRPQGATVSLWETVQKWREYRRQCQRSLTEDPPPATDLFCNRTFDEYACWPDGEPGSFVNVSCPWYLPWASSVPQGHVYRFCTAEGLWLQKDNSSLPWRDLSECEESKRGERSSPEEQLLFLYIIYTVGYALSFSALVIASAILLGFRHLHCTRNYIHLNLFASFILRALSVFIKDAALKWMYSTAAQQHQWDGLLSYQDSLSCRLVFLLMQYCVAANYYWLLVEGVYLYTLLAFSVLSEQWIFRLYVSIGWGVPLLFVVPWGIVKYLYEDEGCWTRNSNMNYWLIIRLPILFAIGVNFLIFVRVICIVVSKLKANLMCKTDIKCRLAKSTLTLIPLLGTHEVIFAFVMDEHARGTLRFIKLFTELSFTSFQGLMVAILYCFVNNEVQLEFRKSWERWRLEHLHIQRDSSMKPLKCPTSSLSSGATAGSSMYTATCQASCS

| Compound | Potency |
| --- | --- |
| C=CCC1(CC=C)CCCN1C(=O)c1cc(COc2ccc(C)nc2)on1 | inconclusive [inhibitor, full curve, poor fit] |
| COc1ccc(OC)c2sc(NC(=O)CCS(=O)(=O)c3ccccc3)nc12 | inactive |
| C[N+]1(CC(=O)OC2CCCCCCCCCCC2)CCCC1 | inconclusive [inhibitor, partial curve, poor fit] |
| O=C(Nn1c(SCc2ccc([N+](=O)[O-])cc2)nc2ccccc2c1=O)c1ccc(F)cc1 | inconclusive [inhibitor, single point] |
| C/C(=N\Nc1nc(-c2ccccc2)cs1)c1cccs1 | inconclusive [inhibitor, full curve, poor fit] |
| CC(C)[C@@H]1NC(=O)N(c2ccc(Oc3ccccc3)cc2)C1=O | inconclusive [inhibitor, partial curve, poor fit] |
| O=S1(=O)CCOC[C@H](CC2CCCCC2)N1Cc1cccc(Cl)c1 | inconclusive [inhibitor, single point] |
| COc1ccccc1NC(=O)N1CCc2c([nH]c3ccccc23)C1C(F)(F)F (stereo not drawn) | inconclusive [inhibitor, partial curve, poor fit] |
| COc1ccc(Nc2nccc3c2ncn3C)cc1 | inconclusive [inhibitor, partial curve, poor fit] |
| Cc1cc(C)n(CC(O)COc2ccc(C(C)C)c(C)c2)n1 (stereo not drawn) | inconclusive [inhibitor, single point] |
| O=C(c1ccccc1Nc1ccc(SC(F)F)cc1)N1CCCCC1 | inconclusive [inhibitor, single point] |
| N#Cc1c(NC(=O)CSc2ncc(-c3ccccc3)n2CC2CCCO2)sc2c1CCCC2 (stereo not drawn) | inconclusive [inhibitor, single point] |
| O=C(NCc1ccc(OC(F)(F)F)cc1)C1CC2Cn3c(nc4ccccc43)C2N1c1ccccc1 (stereo not drawn) | inconclusive [inhibitor, partial curve, poor fit] |
| CCc1ccc(NC(=O)C2(C)Cc3ccccc3C(=O)O2)cc1 (stereo not drawn) | inconclusive [inhibitor, single point] |
| COc1ccc2c(c1)CC/C2=N\OC(=O)c1ccccc1OC | inactive |
| Cc1ccccc1OCC(=O)Nc1ccc(Cc2ccncc2)cc1 | inconclusive [inhibitor, single point] |
| CCCNC(=O)c1c2c(nc3ccccc13)C(=O)N(C1CCCCC1)C2 | inactive |
| Cc1cccn2c(=O)c(/C=C(\C#N)c3nc4ccccc4n3C)c(Oc3ccc(Cl)cc3)nc12 | inactive |
| Cc1ccc(NC(=S)NCc2ccc3c(c2)OCO3)c(C)c1 | inconclusive [inhibitor, single point] |
| COc1cc(OC)cc(C(=O)NC2CCN(CC(=O)Nc3cccc4ccccc34)CC2)c1 | inconclusive [inhibitor, partial curve, poor fit] |
| O=C(/C=C/Nc1ccccc1C(F)(F)F)c1ccco1 | inactive |

| Compound | Potency |
| --- | --- |
| Cc1nc2ccccc2c(C)c1CC(=O)N(C)CC(=O)Nc1cccc(F)c1 | inconclusive [inhibitor, single point] |
| O=C1CC2(CCCCC2)CC(=O)N1CCc1ccccc1 | inconclusive [inhibitor, partial curve, poor fit] |
| CCCCCc1cc(=O)oc2c(C(CCN(CC)CC)c3cc(OC)c(OC)c(OC)c3)c(OC)cc(OC)c12 (stereo not drawn) | inconclusive [inhibitor, partial curve, poor fit] |
| O=C(NCc1ccccn1)c1ccc(OC2CCN(Cc3ccccc3)CC2)cc1 | inconclusive [inhibitor, partial curve, poor fit] |
| O=C(O)/C(=C\c1ccc(Cl)cc1)c1ccc(S(=O)(=O)N2CCCC2)s1 | inactive |
| CCOc1ccc(N2CC(C(=O)Nc3cccc(S(=O)(=O)N4CCCCC4)c3)CC2=O)cc1 (stereo not drawn) | inconclusive [inhibitor, partial curve] |
| Cn1c(C(=O)N2CCN(C(=O)c3ccco3)CC2)cc2c(=O)n3ccccc3nc21 | inactive |
| CCC(C)NC(=O)CNC(=S)N(Cc1ccccc1F)C1CCCCC1 (stereo not drawn) | inconclusive [inhibitor, partial curve, poor fit] |
| COC1=C(C)C(O)=C(C(=O)/C=C/c2ccccc2)C(=O)C1(C)C | inconclusive [inhibitor, full curve, poor fit] |
| O=C(CC1C(=O)N(c2ccccc2)C(=O)N1CCc1cccs1)Nc1ccc(Cl)cc1 (stereo not drawn) | inconclusive [inhibitor, single point] |
| CCCCCc1c(-c2ccc(OC)cc2)ncn1CCc1ccccc1OC | inconclusive [inhibitor, single point] |
| COc1cccc(NC(=O)COC(=O)/C=C/c2c(C)nn(-c3ccccc3)c2C)c1 | inconclusive [inhibitor, single point] |
| Cc1ccc(OCC(=O)N2CCc3ccccc3C2)c(C)c1 | inconclusive [inhibitor, partial curve, poor fit] |
| COC(=O)c1cccc(NC(=O)Nc2ccc(Cl)cc2)c1 | inconclusive [inhibitor, full curve, poor fit] |
| CCCN1CCN(C(=S)Nc2ccc(SC(F)F)cc2)CC1 | inconclusive [inhibitor, partial curve, poor fit] |
| CCCOc1cccn2c(N(C)C(=O)c3ccccc3F)c(CC)nc12 | inactive |
| CCOc1cc(/C=C2\COc3ccccc3C2=O)ccc1OCC(=O)N(C)C | inconclusive [inhibitor, partial curve, poor fit] |
| O=C(CN(C(=O)c1nsc(Cl)c1Cl)c1cccc(F)c1)NC1CCCC1 | inconclusive [inhibitor, single point] |
| CCOc1cccc(-c2c(C(=O)N/N=C(\C)c3ccccn3)nnn2-c2nonc2N)c1 | inconclusive [inhibitor, partial curve, poor fit] |
| O=C(Nc1nnc(-c2ccc(F)cc2)s1)c1c(F)cccc1Cl | inactive |
| CC1(C(=O)NS(=O)(=O)c2ccc(Cl)s2)CCN1C(=O)C1(c2ccccc2)CCCC1 (stereo not drawn) | inconclusive [inhibitor, partial curve, poor fit] |

| Compound | Potency |
| --- | --- |
| CC1(C)CC(=O)C(C=NCC2CCN(C(=S)Nc3cccc(Cl)c3)CC2)=C(O)C1 | inconclusive [inhibitor, partial curve, poor fit] |
| C/C(=N\NS(=O)(=O)c1ccccc1)c1ccccc1 | inactive |
| O=C(Cn1nnc(-c2ccccc2)n1)Nc1cccc(S(=O)(=O)N2CCOCC2)c1 | inconclusive [inhibitor, single point] |
| C=C(C)C(=O)O[C@H]1C/C(C)=C\C(=O)/C=C(\C)[C@H](O)[C@@H]2OC(=O)C(=C)[C@@H]21 | inconclusive [inhibitor, single point] |
| COCCNC(=S)N/N=C/c1c2ccccc2cc2ccccc12 | inconclusive [inhibitor, partial curve, poor fit] |
| O=C(CCC(F)(F)F)N1CCCC(N2CCN(c3cccc(Cl)c3)CC2)C1 (stereo not drawn) | inconclusive [inhibitor, single point] |
| COCn1c(-c2ccc(OC)cc2)nc2ccccc21 | inconclusive [inhibitor, single point] |
| Cc1cc(C)cc(OCCSc2nc(-c3ccc(C(C)(C)C)cc3)nc3cc(=O)[nH]n23)c1 | inactive |
| COC(=O)c1c(NC(=O)COc2ccc(OC)cc2)sc2c1CCC(C)C2 (stereo not drawn) | inconclusive [inhibitor, single point] |
| COCCCNC(=S)N1CCN(c2nc(-c3ccc(F)cc3)cs2)CC1 | inconclusive [inhibitor, single point] |
| Cc1cc(C)n(-c2cc(N3CCN(S(=O)(=O)c4ccc5ccccc5c4)CC3)ccc2[N+](=O)[O-])n1 | inactive |
| CC(=O)c1ccc(OCCCC(=O)NNC(=O)c2ccccn2)cc1 | inactive |
| O=C(NC(NNc1ccc([N+](=O)[O-])cc1)(C(F)(F)F)C(F)(F)F)c1ccc(Cl)cc1 | inconclusive [inhibitor, partial curve, poor fit] |
| O=C1c2ccccc2C(Nc2cccnc2)N1Cc1ccccc1Cl (stereo not drawn) | inactive |
| CN(CCc1ccccc1)C(c1cc2ccccc2o1)c1nnnn1C(C)(C)C (stereo not drawn) | inconclusive [inhibitor, partial curve, poor fit] |
| CCCC(C)NC(=O)c1ccc2[nH]c3c(c2c1)CC(C)CC3 (stereo not drawn) | inconclusive [inhibitor, partial curve] |
| CCOC(=O)Cn1c(-c2nonc2NC(=O)c2ccccc2F)nc2ccccc21 | inconclusive [inhibitor, full curve, poor fit] |
| Cc1ccc(NC2=CC(=O)CC(C)(C)C2)cc1Cl | inconclusive [inhibitor, single point] |
| Cc1sc2ncn(CC(=O)Nc3ccc(C(F)(F)F)cc3)c(=O)c2c1S(=O)(=O)N1CCN(C)CC1 | inconclusive [inhibitor, single point] |
| COc1ccc(-n2nc(C(=O)NCC(=O)NCC3COc4ccccc4O3)c3ccccc3c2=O)c(OC)c1 (stereo not drawn) | inactive |
| CCOc1ccccc1CNC(=O)CCNS(=O)(=O)c1ccc2[nH]c(=O)oc2c1 | inactive |
